According to PMC1851384:
Results are given in words; binding and its absence hold for the method and conditions named. For some of these results: Binding seen in cells or lysates may run through a third protein. Some entries that bind do so weakly or less than the wild type. Each block holds one substance with its values, some of them ahead of it.

Amino acid sequences for entries named in this document (tags omitted). A change or cut given only in a name is not applied to a line headed by its entry. Chains listed by the source or under a name are the forms on record and can include a tag or linker. Residues count along the entry.
UniProt Q9BZR8: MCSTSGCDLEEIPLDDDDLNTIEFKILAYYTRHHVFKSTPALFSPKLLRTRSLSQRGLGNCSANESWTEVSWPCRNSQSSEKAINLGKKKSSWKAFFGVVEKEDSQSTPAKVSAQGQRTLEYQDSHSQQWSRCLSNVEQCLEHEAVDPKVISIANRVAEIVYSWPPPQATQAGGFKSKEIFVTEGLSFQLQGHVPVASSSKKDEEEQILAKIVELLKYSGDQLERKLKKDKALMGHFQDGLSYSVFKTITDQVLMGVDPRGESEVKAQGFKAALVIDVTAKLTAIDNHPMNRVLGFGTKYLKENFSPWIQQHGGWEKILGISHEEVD
Flag-tagged Bcl-GL C-1 construct (amino acids 1 to 305): residues 1-305 of Q9BZR8
Flag-tagged Bcl-GL C-2 construct (amino acids 1 to 295): residues 1-295 of Q9BZR8
Flag-tagged Bcl-GL C-3 construct (amino acids 1 to 215): residues 1-215 of Q9BZR8
Flag-tagged Bcl-GL N-1 construct (amino acids 12 to 327): residues 12-327 of Q9BZR8
Flag-tagged Bcl-GL N-3 construct (amino acids 121 to 327): residues 121-327 of Q9BZR8
Flag-tagged Bcl-GL N-4 construct (amino acids 171 to 327): residues 171-327 of Q9BZR8
UniProt Q14680: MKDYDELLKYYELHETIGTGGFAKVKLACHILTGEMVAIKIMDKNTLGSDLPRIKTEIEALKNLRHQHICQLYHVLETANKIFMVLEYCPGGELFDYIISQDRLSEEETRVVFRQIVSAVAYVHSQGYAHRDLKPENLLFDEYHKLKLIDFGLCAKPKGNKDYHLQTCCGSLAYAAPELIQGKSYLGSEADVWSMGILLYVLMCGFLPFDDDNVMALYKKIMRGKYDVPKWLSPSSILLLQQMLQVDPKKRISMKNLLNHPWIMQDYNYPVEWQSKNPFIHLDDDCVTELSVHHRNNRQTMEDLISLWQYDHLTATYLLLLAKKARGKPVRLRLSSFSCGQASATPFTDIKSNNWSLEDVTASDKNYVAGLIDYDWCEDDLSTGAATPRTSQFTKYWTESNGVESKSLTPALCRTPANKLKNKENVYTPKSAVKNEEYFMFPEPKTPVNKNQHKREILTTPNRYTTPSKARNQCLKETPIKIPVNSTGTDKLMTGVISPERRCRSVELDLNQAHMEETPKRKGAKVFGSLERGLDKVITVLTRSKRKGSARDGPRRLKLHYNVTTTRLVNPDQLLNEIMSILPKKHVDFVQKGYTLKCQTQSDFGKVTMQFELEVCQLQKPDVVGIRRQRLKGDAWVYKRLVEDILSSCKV

Key:
[1] = molecular target: Flag-tagged full-length Bcl-GL (human) (UniProt Q9BZR8); assay: co-IP; HeLa cells co-transfected with Flag-tagged Bcl-GL (full length or partial) and HA-tagged WT-MELK; lysate precipitated with anti-Flag M2 agarose at 4°C for 12 hours; blot with anti-HA
[2] = molecular target: Flag-tagged Bcl-GL N-1 construct (amino acids 12 to 327) (human) (UniProt Q9BZR8); assay: as above
[3] = molecular target: Flag-tagged Bcl-GL N-3 construct (amino acids 121 to 327) (human) (UniProt Q9BZR8); assay: as above
[4] = molecular target: Flag-tagged Bcl-GL C-1 construct (amino acids 1 to 305) (human) (UniProt Q9BZR8); assay: as above
[5] = molecular target: Flag-tagged Bcl-GL N-4 construct (amino acids 171 to 327) (human) (UniProt Q9BZR8); assay: as above
[6] = molecular target: Flag-tagged Bcl-GL C-2 construct (amino acids 1 to 295) (human) (UniProt Q9BZR8); assay: as above
[7] = molecular target: Flag-tagged Bcl-GL C-3 construct (amino acids 1 to 215) (human) (UniProt Q9BZR8); assay: as above
[8] = molecular target: His-tagged wild-type MELK recombinant protein (human) (UniProt Q14680); assay: pull-down; 0.5 uM His-tagged WT-MELK or D150A-MELK pre-immobilised on Ni-NTA agarose beads, incubated with 7.5 mg HBC4 cell lysate in 50 mM Tris-HCl pH 7.5, 50 uM ATP, 10 mM MgCl2, 25 mM NaCl, 1 mM DTT at 30°C for 5 minutes; SDS-PAGE, silver stain; band identified by MALDI-TOF mass spectrometry; only the target purified
[9] = molecular target: His-tagged kinase-dead MELK (D150A) recombinant protein (human) (UniProt Q14680); assay: as above
[10] = molecular target: His-tagged kinase-dead MELK (D150A) recombinant protein (human) (UniProt Q14680); assay: condition: 5 μg of Bcl-GL recombinant protein in 500 μl; pull-down; in vitro binding assay: 10 ug His-tagged MELK held by anti-6XHis antibody on protein G Sepharose; 5 ug Bcl-GL recombinant protein in 500 ul binding buffer (50 mM Tris, 75 mM NaCl, 10 mM MgCl2, 1 mM DTT, 2% BSA, 100 uM ATP), 30 minutes at 4°C; blot with anti-Bcl-GL; both purified

binding [1]: binds | binding [2]: binds | binding [3]: no binding | binding [4]: binds | binding [5]: no binding | binding [6]: binds | binding [7]: binds
Substance: HA-tagged wild-type MELK (from UniProt Q14680-1 1-651) (enzyme)

binding [8]: binds | binding [9]: no binding
Substance: Bcl-G (approximately 30 kDa protein from HBC4 cell lysate) (from UniProt Q9BZR8-1 1-327)

binding [10]: no binding
Substance: Bcl-GL recombinant protein (GST removed) (from UniProt Q9BZR8-1 1-327)
